Data from PubChem BioAssay AID1956 (SRMLSC, 2009).
Some of the results follow. These are further read-outs of the screen, such as a control signal, another cell line or another target. No call is given for them.

Assay: enhancers of HSV replication in host cells, fold increase, host cell viability (AID 1956); note: tested in PC3 cells
Details: HSV replication augmentation in cells; fold increase: measured here: primary screen fold increase 10 uM, at 10 µM, stronger effect = higher value; viability: measured here: host cell viability series, at 25 µM, stronger effect = lower value

Row | SMILES | fold increase | viability [%]
1 | FC(F)(F)c1ccc2c(c1)C1C=CCC1C(c1ccncc1)N2 (stereo unspecified) | 1.39 | 94
2 | Cc1ccc(CNC(=O)C2CCCN(Cc3cnn(-c4ccccc4)c3-n3cccc3)C2)cc1 (stereo unspecified) | 1.37 | 90.9
3 | Cc1ccc(NC(=S)NCc2ccc3c(c2)OCO3)c(C)c1 | 1.33 | 
4 | CC(C)COc1ccc2[nH]c3c(c2c1)CCCC3=O | 1.11 | 
5 | O=C(N/N=C/c1c(O)ccc2ccccc12)c1cccc(C(F)(F)F)c1 | 8.07 | 
6 | COc1cccc(/C=N/NC(=O)c2ccc(=O)[nH]n2)c1O | 1.35 | 96.3
7 | Cc1nc([N+](=O)[O-])cn1CC(O)c1ccc(Cl)cc1 (stereo unspecified) | 1.84 | 102
8 | Cc1cccc(N=C2NC(=O)S/C2=C\c2ccco2)c1 | 1.6 | 83.1
9 | CNC(=O)CN(C)S(=O)(=O)c1ccc(F)cc1 | 1.53 | 98.4
10 | COc1cc(C(=O)Oc2ccccc2/C=N/NC(=O)c2ccc(Cl)cc2Cl)cc(OC)c1OC | 1.21 | 
11 | COc1ccc(-n2c(O)c(/C=N/NS(=O)(=O)c3cccc([N+](=O)[O-])c3)c3ccccc3c2=O)cc1OC | 1.33 | 
12 | CCOC(=O)c1[nH]c(CSc2nnnn2-c2ccccc2C)c(C(=O)OCC)c1C | 1.15 | 
13 | Cc1c(-n2cc(C(=O)c3cc(Cl)ccc3O)cc(C#N)c2=O)c(=O)n(-c2ccccc2)n1C | 1.34 | 93.7
14 | Cc1ccc(/C=C2\CCC3=C2OC(N)=C(C#N)C3c2ccc(C)cc2)cc1 (stereo unspecified) | 1.53 | 90.2
15 | NC(=O)c1c(NC(=O)CSc2nnc(-c3ccco3)n2N)sc2c1CCCC2 | 1.35 | 99.1
16 | CCN1C(=O)/C(=C/C=C2/Sc3ccc4ccccc4c3N2CCO)SC1=S | 2.33 | 73.2
17 | CCOC(=O)c1sc(-n2[nH]c(C)cc2=O)nc1C | 1.18 | 
18 | COc1cccc(NC2=Nc3cccc4cccc2c34)c1 | 1.43 | 83
19 | COc1cc(C=C(c2nc3ccccc3s2)c2nc3ccccc3s2)cc(OC)c1O | 1.95 | 91.7
20 | CC(C)NC(=O)c1ccccc1NC(=O)c1ccccc1N(C)S(C)(=O)=O | 1.35 | 99.2
21 | COc1cc(-c2cc(=O)c3c(O)cc(O)cc3o2)ccc1O | 1.45 | 88.6
22 | O=C(/C=C/c1ccncc1)c1cc(Cl)ccc1O | 1.37 | 98.9
23 | N#Cc1c(CSCC(=O)O)cc(=O)n2c1[nH]c1ccccc12 | 1.38 | 101
24 | O=c1oc2cc(O)ccc2cc1-c1nc2c(s1)CCc1ccccc1-2 | 7.61 | 88.8
25 | CCCCC1OC2(C)OC(=N)C1(C#N)C(C#N)(C#N)C2c1ccccc1 (stereo unspecified) | 1.93 | 87.7

Row | SMILES | fold increase | viability [%]
26 | O=[N+]([O-])c1ccc(N2N=C(c3ccco3)CC2c2ccccc2)cc1 (stereo unspecified) | 1.49 | 94.5
27 | CN(C)S(=O)(=O)c1cccc(C(=O)NCc2ccco2)c1 | 1.38 | 100
28 | CCOC(=O)C1=C(N)Oc2c(oc(CO)cc2=O)C1c1ccc(Cl)cc1 (stereo unspecified) | 1.69 | 90.3
29 | Cc1cc(NCc2ccc3c(c2)OCO3)n2nc(C)nc2n1 | 1.41 | 93.5
30 | Cc1cc2cc(C(c3nnnn3Cc3ccco3)N3CCc4ccccc43)c(=O)[nH]c2cc1C (stereo unspecified) | 1.46 | 95.3
31 | O=C1OC(C(=O)NCc2ccccc2)Cc2ccccc21 (stereo unspecified) | 1.4 | 104
32 | O=C(CC1C(=O)NCCN1C/C=C/c1ccccc1)NCCc1cccnc1 (stereo unspecified) | 1.4 | 97.9
33 | COc1ccc(N=C(C)c2sc3ccccc3c2O)cc1 | 2.04 | 97.4
34 | CCCCCn1nc(-c2ccccc2)c2nc3ccccc3nc21 | 1.35 | 101
35 | COc1cc(/C=C/c2ccc3c(Br)cc(Br)c(O)c3n2)ccc1O | 1.95 | 
36 | CC(C)(C)C(=O)c1sc2nc(-c3cccs3)cc(C(F)(F)F)c2c1N | 1.52 | 101
37 | Cc1ccc(CNc2ccc3c(c2)OCO3)cc1 | 1.33 | 
38 | COc1ccc(-n2c(Cn3c(=O)sc4ccccc43)nnc2SC)cc1 | 1.39 | 93.5
39 | Cc1ccc2nc(/C(C#N)=C/c3ccc(-c4cccc([N+](=O)[O-])c4)o3)[nH]c2c1 | 2.19 | 
40 | Cc1ccc(-c2nnn(CC(=O)N(Cc3cccs3)C(C(=O)NC3CCCCC3)c3ccco3)n2)o1 (stereo unspecified) | 1.06 | 
41 | Cc1ccc(C(=O)NCC(=O)OCC(=O)c2cc(C)n(Cc3ccco3)c2C)cc1 | 1.37 | 95.7
42 | O=C(CN1CCCc2ccccc21)NCc1ccccc1Cl | 1.32 | 
43 | COc1cc(/C=C2/CCC/C(=C\c3cc(O)c(OC)c(Cl)c3)C2=O)cc(Cl)c1O | 1.42 | 21
44 | C=CCN1C=CC(=CC=C(C#N)C#N)C=C1 | 2.37 | 91.2
45 | COc1ccc(C2C(C#N)=C(N)N3C(=C2C#N)Sc2ccccc23)cc1 (stereo unspecified) | 1.54 | 
46 | O=C1CC(NNC(=O)c2ccccc2)C(=O)N1 (stereo unspecified) | 1.33 | 98.4
47 | CCCS(=O)(=O)N1CCN(Cc2ccncc2)CC1 | 1.35 | 97.4
48 | CN1CCS/C1=C/C=C1\SC(=S)N(CC(=O)O)C1=O | 2.26 | 
49 | COc1cc(/C=C(\C#N)C(=O)c2c[nH]c3ccccc23)cc(OC)c1O | 7.38 | 
50 | O=C(O)c1ccc(S(=O)(=O)c2ccc(Sc3ccc(C(=O)O)c(C(=O)O)c3)cc2)cc1 | 1.6 | 105

Row | SMILES | fold increase | viability [%]
51 | COc1ccccc1C1CC(c2ccco2)=NN1c1ccccc1 (stereo unspecified) | 1.51 | 94.2
52 | Cc1ccc(C(=O)O)cc1N=Cc1cc(Br)cc(Br)c1O | 1.54 | 103
53 | N#Cc1c(N)n(-c2cccc(C(=O)O)c2)c2nc3ccccc3nc12 | 1.71 | 93.3
54 | CCS(=O)(=O)c1nn2c(N)c(/C=C3/C=CC(=O)C(OC)=C3)c(=O)nc2s1 | 4.28 | 94.6
55 | COc1ccc(Oc2nc(C(F)(F)F)nc3ccccc23)cc1 | 1.37 | 103
56 | NC1=NC(=O)/C(=C/c2cn(Cc3ccccc3)c3ccccc23)S1 | 1.33 | 85.7
57 | CCN1C(=O)/C(=C/C=C2/SCCN2C)SC1=S | 2.36 | 99.7
58 | CCOc1cc(C2C(C(=O)c3ccc(C)cc3)=C(C(=O)OC)Nc3nnnn32)ccc1O (stereo unspecified) | 1.39 | 93.4
59 | Cc1nonc1CN(C)C(=O)CC1C(=O)NCCN1Cc1c(F)cccc1Cl (stereo unspecified) | 1.32 | 
60 | CC(=O)c1sc(N/N=C\c2ccc(C)cc2)nc1C | 1.34 | 
61 | CCCCN(C)C(=O)c1nc2ccccn2c1CN1CCC[C@H]1C(=O)OC | 1.6 | 90.1
62 | C=C(C)CSc1nnc(-c2cccc(Cl)c2)n1N | 1.46 | 89.9
63 | CC1=NNC(=O)c2ccccc2O1 | 1.34 | 102
64 | CCN(CC)C(=O)CSc1nnc2nnc3cc(C)ccc3n12 | 2.07 | 93.9
65 | COC1=C/C(=C/c2c(N)n3nc(-c4ccc(C)cc4)sc3nc2=O)C=CC1=O | 1.89 | 96.8
66 | Cc1cccc(-n2nc(CC#N)c(C#N)c2N)c1 | 1.41 | 98.1
67 | CC(=O)c1ccc(N=c2scc(C)n2C(C)C)cc1 | 1.33 | 98.9
68 | Cc1ccsc1C1C=C(c2cccc(Br)c2)Nc2ncnn21 (stereo unspecified) | 1.55 | 
69 | Cc1ccc(N2C(=O)c3cccc4c(Oc5ccccc5[N+](=O)[O-])ccc(c34)C2=O)c(C)c1 | 3.72 | 
70 | COc1cc(/C=C2\SC(=S)N(NC(=O)c3cccnc3)C2=O)ccc1O | 6.5 | 95
71 | Cc1csc(NC(=O)CSc2nnc(-c3ccccn3)n2-c2ccc(C)c(C)c2)n1 | 1.17 | 
72 | C/C(=N/NC(N)=S)c1cc2ccc(O)cc2oc1=O | 3.06 | 98.7
73 | N#Cc1cc(C(=O)c2ccccc2O)cn(-c2ccc(Cl)cc2)c1=O | 2 | 94.2
74 | CC(C)Oc1ncnc2c1[nH]c1ccccc12 | 1.42 | 25.1
75 | COc1ccc(OC)c(C2C3CN(C(C)C)CC=C3C(C#N)=C(N)C2(C#N)C#N)c1 (stereo unspecified) | 1.44 | 

Row | SMILES | fold increase | viability [%]
76 | O=C1/C(=C/c2ccc(O)c(O)c2)SC(=S)N1Nc1ccccc1 | 3 | 80
77 | CCOC(=O)CN1C(=O)S/C(=C/C=C/c2ccc(N(C)C)cc2)C1=O | 2.36 | 95.9
78 | CCCCOc1ccc(CNn2c(C)nc3ccccc3c2=O)cc1 | 1.51 | 97.8
79 | N#CC(c1nc2ccccc2nc1N1CCCC1)S(=O)(=O)c1ccccc1 (stereo unspecified) | 1.38 | 99
80 | NC(=O)CC1Nc2cccc3cccc(c23)NC1=O (stereo unspecified) | 1.36 | 
81 | CCCN1C(=O)c2cccc3c(N4CCCCC4)ccc(c23)C1=O | 6.71 | 83.5
82 | CC1SCC(NC(=O)c2ccc(Cl)cc2)CS1 (stereo unspecified) | 1.32 | 
83 | COc1ccc(C2C(C(C)=O)=C(C)N=c3s/c(=C\c4cc(C)n(C)c4C)c(=O)n32)c(OC)c1 (stereo unspecified) | 2.22 | 91.1
84 | Cc1nc(Cl)c2c(n1)NC1=C(O2)C(=O)CCC1 | 1.55 | 
85 | CCOC(=O)c1c(-c2ccc(C)s2)csc1N | 1.32 | 99.3
86 | CN1C(=O)C(O)(CC(=O)c2ccccn2)c2cc(Br)ccc21 (stereo unspecified) | 1.29 | 
87 | O=C(COc1ccc(S(=O)(=O)N2CCOCC2)cc1)N1CCCCCC1 | 1.4 | 98.9
88 | O=C(Nc1ccc(F)cc1)OCCN1CCN(Cc2ccccc2)CCC1=O | 1.32 | 
89 | Cc1ccsc1/C=C1\Oc2cc(OCC(=O)c3ccccc3)ccc2C1=O | 1.35 | 102
90 | CCOC(=O)c1c(NC(=S)Nc2ccc(Cl)cc2)sc2c1CCN(C)C2 | 1.78 | 88.1
91 | O=C1S/C(=C\c2ccc(N3CCOCC3)o2)C(=O)N1Cc1c(F)cccc1Cl | 4.93 | 82.7
92 | CCN1CCc2c(sc(NC(=O)Nc3ccc(Cl)c(Cl)c3)c2C(N)=O)C1 | 8.02 | 56.9
93 | CCCc1cc(=S)n2c([nH]c3ccccc32)c1C#N | 1.33 | 79
94 | COc1cc2c3nnc(-c4ccc(F)cc4)c-3cn(Cc3cccc(F)c3)c2cc1OC | 1.96 | 93.2
95 | c1ccc(CNc2cnccn2)cc1 | 1.48 | 99.6
96 | CCOC(=O)C1=C(C)N=c2s/c(=C/c3ccco3)c(=O)n2C1c1cccc(OC)c1 (stereo unspecified) | 1.36 | 94.2
97 | c1ccc2[nH]c(CN3CCCCCC3)nc2c1 | 1.58 | 100
98 | O=C(Nc1ccccc1)C1=C(O)CC(c2ccco2)CC1=Nc1ccccc1 (stereo unspecified) | 1.58 | 95.5
99 | O=C(NC(=S)Nc1ccccc1N1CCCCC1)c1ccco1 | 5.48 | 
